Data published in PubChem BioAssay AID1345083 (National Center for Advancing Translational Sciences (NCATS), 2018).
Screen size: about 94,000 compounds; about 6,200 (6.6%) were called active. Inconclusive means that the source gave no clear call. Such entries were picked first, then a sample of the others. The call rests on the fitted dose curve; in most records, active means well fitted inhibition curve with a large enough effect; inconclusive means small, poorly fitted or top-dose-only effect; inactive means flat fitted curve, though single readings scatter. Potencies beside an inconclusive call are fits to weak or partial responses and may not hold up.

Assay: Cytotoxic Profiling in HEK 293 Cell Line of Diverse Libraries Using Quantitative High-Throughput Screening; further: nearly all actives have a fitted effect of over 60% in size
Settings: HEK 293 viability, ATP luminescence (CellTiter-Glo), 48-72 h; activity change, negative = cytotoxicity: at 115 µM (top of the series) unless noted; series mostly up to 115 µM
How it was run: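 Viability of HEK 293 cells, plated at 250 cells/well, was judged by cellular ATP after compound treatment for 48 or 72 hr. Luminescence was imaged 10 min after CellTiter-Glo addition at room temperature.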
On the % scale 0 is the no-effect control and ±100 the full control effect; potency means the concentration at half of the fitted maximal effect; tags describe the fitted curve by direction and shape.

Structure (SMILES) | Potency | activity change, negative = cytotoxicity | outcome
C=CCOc1c(OC)ccc2c1CN(Cc1ccco1)C(=O)CCN2CC(O)COCc1ccco1 (stereo unspecified) | inconclusive: 79.4 µM [inhibitor, partial curve, poor fit] |  | 
COc1ccc(-c2nc(C3CC3)nc3c2CCN(Cc2ccsc2)CC3)cc1 | inconclusive: 56.2 µM [inhibitor, partial curve, poor fit] |  | 
CCS(=O)(=O)c1ccc2oc([C@H]3CCN(Cc4c[nH]c5ccccc45)C3)nc2c1 | inconclusive: 112 µM [inhibitor, partial curve, poor fit] |  | 
O=C(NC1CCN(c2cc(-c3ccc(Cl)cc3)[nH]n2)CC1)c1ccncc1 | active: 28.2 µM |  | 
Cc1ccc(NC(=O)C2CCN(C(=O)c3ncn4c3COC(c3ccc(F)cc3)C4)CC2)cc1C (stereo unspecified) |  | inactive: 12.5% | 
O=C(Nc1ccccc1)N1CCOC(CN(CC2CC2)C(=O)c2cccc(F)c2)C1 (stereo unspecified) | inconclusive: 25.1 µM [inhibitor, full curve] |  | 
NC(=O)c1ccccc1OC[C@@H]1CCCN2CCCC[C@H]12 |  | inactive: -1.51% | 
COc1ccc(CCC(=O)N2CCC3(CC2)C(=O)N(C)c2ccccc23)cc1 | inconclusive: 50.1 µM [inhibitor, partial curve, poor fit] |  | 
CSc1ccc(NC(=O)c2cc(-c3ccc[nH]3)n[nH]2)cc1 |  | inactive: -24.8% | 
Cc1occc1C(=O)N1CCCn2ccnc2C1c1cnn(C)c1 (stereo unspecified) |  | inactive: -10.9% | 
COC(=O)c1cccc(NC(=S)N[C@H]2CO[C@H]3[C@@H]2OC[C@H]3OC(=O)Nc2cccc(C(F)(F)F)c2)c1 | active: 44.7 µM |  | 
COc1cccc(CCC(=O)N2CCN(C(=O)c3nnn4c3COC(c3ccccc3)C4)CC2)c1 (stereo unspecified) | inconclusive: 39.8 µM [inhibitor, partial curve] |  | 
COc1ccc(CNC(=O)C2(c3ccc(NS(C)(=O)=O)cc3)CCCCC2)cc1 | inconclusive: 89.1 µM [inhibitor, single point] |  | 
O=c1n(-c2ccc(C(F)(F)F)cc2)nc2n1CCN(CC1CC1)C2 | inconclusive: 126 µM [inhibitor, partial curve, poor fit] |  | 
CNC(=O)c1cc(C)nc2onc(C3CCCN3C(=O)C3CCCC3)c12 (stereo unspecified) |  | inactive: -7.89% | 
CN(Cc1ccc(C2CC(=O)Nc3n[nH]c(C4CCC4)c32)o1)S(C)(=O)=O (stereo unspecified) |  |  | inactive
O=C(CN1C(=O)C(c2ccccc2)=NC12CCCC2)NCc1ccccc1Cl | inconclusive: 50.1 µM [inhibitor, partial curve, poor fit] |  | 
Cc1cccc(CN2CCc3ncc(C(=O)NCc4ccccc4)n3CC2)c1 |  | inactive: -66.9% [at 172 µM] | 
Cc1noc(C2CC3(CCN(C(=O)COc4ccc(F)cc4)CC3)CN2C)n1 (stereo unspecified) |  | inactive: 2.27% | 
Cc1ccccc1-n1cc(-c2ccnc(NC3CCN(C)CC3)n2)cn1 | inconclusive: 79.4 µM [inhibitor, partial curve, poor fit] |  | 
COc1ccc(Nc2ccc3c(n2)CN(Cc2nc4ccccc4s2)C(=O)CO3)cn1 | active: 50.1 µM |  | 
CNC(=O)c1cc(C2CC2)nc2c1c(C1CCN([S+](=O)([O-])c3ccc(C)cc3)C1)nn2C (stereo unspecified) | inconclusive: 79.4 µM [inhibitor, partial curve, poor fit] |  | 

Structure (SMILES) | Potency | activity change, negative = cytotoxicity | outcome
CNC(=O)c1cc(C2CC2)nc2c1c(C1CCCN1[S+](=O)([O-])c1cccc(C(F)(F)F)c1)nn2C (stereo unspecified) | inconclusive: 56.2 µM [inhibitor, partial curve, poor fit] |  | 
CNC(=O)NCCc1ncc(C)n1C1CCCCCC1 |  | inactive: 2.48% | 
O=S(=O)(c1ccc2c(c1)CCC2)N1CCCCC1c1nc(CCOCC2CC2)no1 (stereo unspecified) | active: 39.8 µM |  | 
CN1C(=O)C2(CCN(CC3CCCCC3)C2)c2ccccc21 (stereo unspecified) | inconclusive: 56.2 µM [inhibitor, full curve, poor fit] |  | 
COc1cccc(CC(=O)N2CCC(N3CC4CC(C3)[C@H]3CCCC(=O)N3C4)CC2)c1 (stereo partly specified) |  | inactive: 5.83% | 
Cc1ccc(C(=O)N2CC(c3nnc(-c4ccncc4)o3)C3(CCOCC3)C2)cc1F (stereo unspecified) |  | inactive: -1.88% | 
O=c1[nH]c(N2CCOCC2)nc2c1CCN(Cc1ccccc1Cl)CC2 |  | inactive: -2.54% | 
CC(C)c1cc(C2CCCN2C(=O)CCc2cc3n(n2)CCCNC3)no1 (stereo unspecified) |  |  | inactive
COc1ccc(-n2nc(C3CCCN(C(=O)Cc4ccc(F)cc4)C3)[nH]c2=O)cc1 (stereo unspecified) | inconclusive: 89.1 µM [inhibitor, single point] |  | 
CNc1cc(C)nc(N2CCN(Cc3ccc(C)cc3)C(CCO)C2)n1 (stereo unspecified) | inconclusive: 35.5 µM [inhibitor, partial curve] |  | 
O=C(NCc1cccs1)C1CCN(C(=O)c2ccc(-c3cccs3)cc2)CC1 | inconclusive: 89.1 µM [inhibitor, single point] |  | 
Cc1cc(F)ccc1OC1CN(Cc2ccc(C#N)cc2)C1 | active: 63.1 µM |  | 
O=C1NC(=NC2CCCCC2)C2(CCN(CC3CCCCC3)C2)N1c1cc(F)cc(F)c1 (stereo unspecified) | active: 31.6 µM |  | 
CCN1c2cc(C(=O)N3CCN(C4CCCCC4)CC3)ccc2C(=O)N2CCCCC21 (stereo unspecified) | inconclusive: 10 µM [inhibitor, full curve] |  | 
O=C(Cc1ccc(Cl)cc1)NC1CCN(c2nccc(Nc3ccccc3Cl)n2)CC1 | inconclusive: 50.1 µM [inhibitor, partial curve, poor fit] |  | 
OC(c1ccccc1)c1nc(Nc2ccc(C(F)(F)F)cc2)n[nH]1 (stereo unspecified) | inconclusive: 100 µM [inhibitor, partial curve, poor fit] |  | 
CC(C)C[C@@H]1N[C@H](C(=O)NCCN(C)C)Cc2cn(Cc3ccncc3)c3cccc1c23 | active: 39.8 µM |  | 
Cc1ccc(OCC(=O)N2CCC(c3noc(-c4ccncc4)n3)C2)cc1 (stereo unspecified) | inconclusive: 25.1 µM [inhibitor, partial curve] |  | 
CCCN(CC1CCOC1)S(=O)(=O)c1ccc(C)c(Cl)c1 (stereo unspecified) | inconclusive: 50.1 µM [inhibitor, partial curve, poor fit] |  | 
Cc1cn2nc(C(=O)N3CCC(NC(=O)c4cccc(N(C)C)c4)CC3)cc2c(=O)[nH]1 |  | inactive: -12% | 
COc1ccccc1-c1cccc(C(=O)N2CCN(C(=O)c3ccc(C(F)(F)F)cc3)CC2)c1 | inconclusive: 35.5 µM [inhibitor, partial curve, poor fit] |  | 
Fc1ccccc1CCNc1cc(Cl)nc2ccnn12 | inconclusive: 89.1 µM [inhibitor, partial curve, poor fit] |  | 

Structure (SMILES) | Potency | activity change, negative = cytotoxicity | outcome
Cc1cccc(CNC(=O)c2c(OCC(C)C)cc(=O)n3c2CCCCC3)c1 | inconclusive: 89.1 µM [inhibitor, single point] |  | 
COc1ccc(CNC(=O)c2noc(-c3ccc(C)cc3)n2)cc1OC | inconclusive: 50.1 µM [inhibitor, partial curve] |  | 
Cc1ccccc1CC(=O)N1CCCN(C(=O)C2CC2)c2ccccc21 |  | inactive: -7.23% | 
CC(C)N1CCC(O)(c2csc(CN3CCc4ccccc4C3)n2)CC1 | inconclusive: 126 µM [inhibitor, partial curve, poor fit] |  | 
O=C(Nc1ccc(Cl)cc1)N1CCCN(c2ccc3nnc(-c4ccccc4)n3n2)CC1 | inconclusive: 44.7 µM [inhibitor, partial curve] |  | 
COc1cc(=O)n2c(c1C(=O)Nc1ccc(N(C)C)cc1)CCCC2 | inconclusive: 89.1 µM [inhibitor, single point] |  | 
CC(C)NC(=O)c1nc(-c2ccsc2)c2ccccn12 |  | inactive: -19% [at 172 µM] | 
Cc1cncnc1C1CCN(c2cc(C3CC(N)C3)ncn2)CC1 (stereo unspecified) |  | inactive: -9.63% | 
CO[C@H]1[C@@H]2CN(Cc3ccccc3)C[C@@H]2[C@@H]2O[C@H]1C[C@@H]2c1ccc(F)cc1 | inconclusive: 50.1 µM [inhibitor, partial curve, poor fit] |  | 
Cc1noc([C@@H]2CN(CC3CCCCC3)C[C@H]2CO)n1 |  | inactive: -15.7% | 
N#Cc1ccc(C(=O)Nc2ccc([C@H]3OCC(=O)N(Cc4ccc(F)cc4)[C@@H]3CO)cc2)cc1 | inconclusive: 50.1 µM [inhibitor, partial curve, poor fit] |  | 
CC(C)(C)c1ccc(C(=O)Nc2ccc(C(O)[C@H]3COCC(=O)N3)cc2)cc1 (stereo partly specified) | inconclusive: 89.1 µM [inhibitor, partial curve, poor fit] |  | 
O=C(Cc1ccc(N(Cc2ccccc2)C(=O)c2ccco2)cc1)NCCc1ccccc1 | active: 50.1 µM |  | 
Cc1noc(C)c1CO[C@@H]1COCC[C@H]1NC(=O)c1cccc(=O)[nH]1 |  |  | inactive
CC(C)C[C@@H]1N[C@H](C(=O)NCCOc2ccccc2)Cc2c[nH]c3cccc1c23 | inconclusive: 50.1 µM [inhibitor, full curve, poor fit] |  | 
COc1cccc(-c2cc3c(=O)n(CCNC(=O)c4ccc(C(C)(C)C)cc4)ccn3n2)c1 | inconclusive: 44.7 µM [inhibitor, partial curve, poor fit] |  | 
O=C(Cn1ccn2nc(-c3ccccc3)c(CO)c2c1=O)Nc1ccc2c(c1)OCCO2 | inconclusive: 89.1 µM [inhibitor, single point] |  | 
CCN(Cc1ccc(C)o1)C(=O)c1ccc2nc(-c3ccc(F)cc3)cn2c1 | inconclusive: 50.1 µM [inhibitor, partial curve, poor fit] |  | 
COC(=O)c1ccc(CN2C(=O)[C@@H]3C[C@@H](O)CN3C3(CN(Cc4cccc(OC(F)(F)F)c4)C3)C2=O)cc1 | inconclusive: 56.2 µM [inhibitor, partial curve, poor fit] |  | 
COCC1CN(C2CCC2)CC12CCN(C(=O)c1cccs1)CC2 (stereo unspecified) | inconclusive: 79.4 µM [inhibitor, partial curve] |  | 
Cc1ccc(C(=O)N2CCC(N3CCOC3=O)CC2)cc1 |  |  | inactive [at 172 µM]
O=C(Cn1nc2c(cc1=O)CCCC2)NCCn1ccc2ccc(Cl)cc21 | inconclusive: 79.4 µM [inhibitor, single point] |  | 
